From ChEMBL document CHEMBL4888484, “Replenishing the malaria drug discovery pipeline: Screening and hit evaluation of the MMV Hit Generation Library 1 (HGL1) against asexual blood stage Plasmodium falciparum ,using a nano luciferase reporter read-out” (2022)
Values joined by “and” are separate entries in the source; they are usually repeats but may differ in a detail not shown here. Equal entries are not always repeated. The campaign covered roughly 150,000 compounds. About 540 (0.36%) showed an effect of 50% or more. The list shows a part of the results.

Tested on: Plasmodium falciparum
Test: Primary screen in NF54 nanoGlo assay, in single point, at 2uM, 72h; a lower Z score goes with more inhibition
Assay type: functional, Erythrocyte
Details: timepoint 72 hour

Structure (SMILES) | % Inhibition [%] | Z score | % Inhibition (2 µM) | Z score (2 µM)
COCC(=O)N(CC(=O)N1CCN(c2ccc(-c3cccc(OC)c3)nn2)CC1)Cc1ccc(F)cc1 | -18 | 1.76 |  | 
CNc1ccc(S(N)(=O)=O)cc1NS(=O)(=O)CCC1CC1 | 12 | -1.62 |  | 
COc1ccccc1CC(=O)c1ccc(O)c(CN2CCCC[C@@H]2C)c1O | 3 | -0.49 |  | 
COc1cccc(S(=O)(=O)N2CCC(F)(C(=O)NC3CC3)CC2)c1 | -8 | 1.05 |  | 
O=C1c2ccccc2C(=O)N1c1nc2c(ccc3ccccc32)s1 | -2 | 0.32 |  | 
CCOC(=O)N1CCC(N2CCc3[nH]nc(/C=C/c4ccccc4)c3C2)CC1 | -15 | 1.29 |  | 
CC(C)(C)c1ccncc1CN1C(=O)[C@H]2CCCCN2C1=O | 16 | -2.04 |  | 
Cc1cc(C)cc(C(=O)Nc2ccc3c(c2)C(=O)Nc2ccccc2O3)c1 | 17 | -3.39 |  | 
CCn1cc(NC(=O)c2cccc(C)n2)cn1 | 2 | -0.26 |  | 
Cc1cc(C)c(S(=O)(=O)NC[C@H](C)O)cc1Br | -7 | 1.28 |  | 
CCCc1nccn1CCCNS(C)(=O)=O | -8 | 1.15 |  | 
O=C(c1cccc(F)c1)N1CCN(c2cc(-n3ccnc3)ncn2)CC1 | -31 | 2.85 |  | 
O=C(N[C@@H](C1CC1)C(F)(F)F)c1[nH]nc2c1CCCC2 | -29 | 3.45 |  | 
CN1CCN(S(=O)(=O)CC(=O)NC[C@@H](c2cccc(Cl)c2)N2CCCC2)CC1 | -2 | 0.37 |  | 
Cc1ccccc1Cn1cnc2c1c(=O)n(C1CCCCC1)c(=O)n2-c1ccccc1Cl | 70 | -7.57 |  | 
Nc1nnc(N[C@H]2COc3ccccc32)[nH]1 | 0 | 0.03 |  | 
O=C(N[C@H]1CC[C@H](Oc2ncc(F)cn2)CC1)N1CCOCC1 | 0 | 0.05 |  | 
CC(C)N(CC(=O)Nc1sc2c(c1C(N)=O)CCCC2)c1ccccc1 | 18 | -2.3 |  | 
Cc1n[nH]c(C)c1[C@@H](N)C(=O)NCCc1ccccc1F | -19 | 2.6 |  | 
CC(C)N1CCN(c2nc3ccccn3c2C#N)CC1=O | -14 | 1.54 |  | 
CN(CCCc1nc(-c2ccccc2)no1)C1(CO)CCOCC1 | -8 | 1.55 |  | 
Cc1[nH]c(=O)sc1S(=O)(=O)NCCN[C@H]1CCCC1(C)C | -6 | 0.8 |  | 

Structure (SMILES) | % Inhibition [%] | Z score | % Inhibition (2 µM) | Z score (2 µM)
COCc1nc(CNC(=O)[C@H]2CCc3nnnn3CC2)cs1 | -9 | 1.68 |  | 
O=C(CN1C(=O)CCC1=O)NCCc1ccc(Cl)cc1 | -4 | 0.56 |  | 
CCC1(CC)CN(C(=O)c2cc(C)c(C(N)=O)cn2)c2ccccc21 | -11 | 1.94 |  | 
Oc1cccc([C@H]2NCCc3c2[nH]c2ccc(OCc4ccccc4)cc32)c1 |  |  | 12% and 18% | -1.58 and -2.95
Cn1c(CN2CCCC2)nnc1[C@H]1CCCN(c2ccc(Cl)cn2)C1 | 3 | -0.57 |  | 
O=C(c1ccc(N2CCCC2=O)cc1)N1CCC2(CCO2)CC1 | -11 | 1.12 |  | 
Cc1cc(C)n(CCN(C)C(=O)C[C@]2(c3cccc(C(F)(F)F)c3)CC(=O)N(C3CC3)C2=O)n1 | -4 | 0.83 |  | 
Cc1nn(C)c(NC(=O)c2scnc2C2CCCC2)c1C | -16 | 1.41 |  | 
Cc1nc(NC(=O)C[C@H]2CCCCO2)n(C)n1 | -4 | 0.36 |  | 
Cc1ccc(O[C@H]2COCC[C@H]2NC(=O)Cc2c(C)noc2C)cn1 | -5 | 0.65 |  | 
CN1CC[C@H](Nc2ccc(OC3CCC3)c(F)c2)C1=O | -14 | 1.19 |  | 
O=S(=O)(NCCN1CCC[C@H](Cn2cncn2)C1)c1ccccc1 | -5 | 0.44 |  | 
CC[C@H]1CCCCN1S(=O)(=O)CCCS(C)(=O)=O | 7 | -0.59 |  | 
c1csc([C@@H](NC2CCC3(CC2)OCCO3)C2CC2)n1 | 1 | -0.08 |  | 
CCC(C)(C)NC(=O)c1ccc(NCc2noc(Cc3ccccc3)n2)cc1 | 1 | -0.16 |  | 
CC(=O)NCc1csc([C@H]2CCCN(S(=O)(=O)c3ccc(C)cc3C)C2)n1 | -11 | 1.41 |  | 
Cc1nn(CC(=O)N2CCc3ccccc3C2)c(C)c1Cl | -3 | 0.31 |  | 
c1ccc(CN2CCCN(c3ncccn3)CCOCC2)cc1 | -2 | 0.18 |  | 
CCO[C@H]1COC[C@@H]1n1cnc(-c2ccccc2)c1-c1cncn1CC | -11 | 1.66 |  | 
N#Cc1ccc(-n2nc(C3CCOCC3)nc2[C@@H]2CNC(=O)N2)cc1 | -13 | 2.57 |  | 
Cc1cc(CCCOc2ccc(C#N)nn2)on1 | 13 | -1.7 |  | 
